Laboratory results: PubChem BioAssay AID1030 (National Center for Advancing Translational Sciences (NCATS), 2008)
Screen size: about 220,000 compounds; about 16,000 (7.3%) were called active. Inconclusive means that the source gave no clear call. Such entries were picked first, then a sample of the others. Calls come from the whole dose curve; as a rule, active = well fitted inhibition curve with a large enough effect (not every such curve was filed as active); inconclusive = small, poorly fitted or top-dose-only effect, or another doubt; inactive = no such curve, though single readings can be large or run the other way. Potencies of inconclusive entries are left out as doubtful fits.
Potency is the fitted concentration of half-maximal effect; tags give direction and shape of the fitted curve.
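Throughout, for activity, negative = inhibition: plate controls were no enzyme wells and a reference inhibitor.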

The compounds below were run against Aldehyde dehydrogenase 1A1 (Homo sapiens) (UniProt P00352) (assay: qHTS Assay for Inhibitors of Aldehyde Dehydrogenase 1 (ALDH1A1)). Conditions: Purified ALDH1A1, NADH fluorescence, propionaldehyde substrate; series mostly up to 75.3 µM; activity, negative = inhibition: at the top concentration.
UniProt P00352, sequence (P00352 whole entry, looked up): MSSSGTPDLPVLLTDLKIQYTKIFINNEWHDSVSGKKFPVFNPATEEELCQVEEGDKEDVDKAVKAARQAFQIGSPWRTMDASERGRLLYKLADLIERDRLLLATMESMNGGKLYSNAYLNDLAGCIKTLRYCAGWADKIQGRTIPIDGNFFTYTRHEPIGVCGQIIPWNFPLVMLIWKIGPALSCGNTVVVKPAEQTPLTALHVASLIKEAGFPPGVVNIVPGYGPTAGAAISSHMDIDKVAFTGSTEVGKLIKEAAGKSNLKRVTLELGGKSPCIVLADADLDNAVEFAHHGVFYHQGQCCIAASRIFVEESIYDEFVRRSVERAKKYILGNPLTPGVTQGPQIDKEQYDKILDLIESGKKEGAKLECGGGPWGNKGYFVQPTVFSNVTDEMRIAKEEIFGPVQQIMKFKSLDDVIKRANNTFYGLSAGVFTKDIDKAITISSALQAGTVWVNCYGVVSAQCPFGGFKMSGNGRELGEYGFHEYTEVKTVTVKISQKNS
With `CCC/C(=N/NC(=O)c1ccc2c(c1)OCO2)c1cccs1` the Potency was inconclusive [inhibitor, single point]. For `CCCN(CCC)C(=O)CCSCCC(=O)N(CCC)CCC`, the Potency was inconclusive [inhibitor, partial curve, poor fit]. In the case of `CN(C)c1ccc(C(=O)NNC(=O)c2ccc(Cl)cc2)cc1`, the Potency is reported as inconclusive [inhibitor, single point]. `COC(=O)CNC(=O)c1cc(-c2ccncc2)nc2c(C)c(Cl)ccc12` was tested, and the Potency was active: 12.6 µM. `CCCC1Cc2nc(N3CCCCC3)c(C#N)cc2CO1` (stereo unspecified) was tested, and the Potency was inconclusive [inhibitor, partial curve]. With `Cc1cc2nnc(SCC(=O)N3CCCCCC3)n2c(N)n1` the Potency was inconclusive [inhibitor, single point]. In the case of `Cc1cc(C)c2ccc(N)nc2c1O`, the “activity, negative = inhibition” value is reported as inactive: 4.3%. For `COc1ccccc1/C=C(/CC(=O)NCc1ccccc1)c1nc2ccccc2s1`, the Potency was inconclusive [inhibitor, partial curve]. With `CCOc1cc(C)c(Cl)cc1S(=O)(=O)NCc1ccc2c(c1)OCO2` the Potency was inconclusive [inhibitor, partial curve]. `Cc1onc(-c2ccccc2)c1C(=O)NNC(=S)NC(=O)c1ccc(Br)cc1` was tested, and the Potency was inconclusive [inhibitor, single point]. For `O=S(=O)(NCc1ccco1)c1cccc(S(=O)(=O)N2CCCCC2)c1`, the Potency was inconclusive [inhibitor, partial curve]. For `Cc1cc2c(C)cc(=O)oc2c2c1NCCC2`, the Potency was inconclusive [inhibitor, partial curve]. `Cc1cc(Cl)c(OCCN2C(=O)NC(C)(C)C2=O)c(Br)c1` was tested, and the “activity, negative = inhibition” value was inactive: 1.79%. `CCCC(C(=O)NCc1ccco1)N(C(=O)CNS(=O)(=O)c1ccccc1)c1ccccc1OC` (stereo unspecified) was tested, and the “activity, negative = inhibition” value was inactive: -7.89%. With `O=C(NC(=S)Nc1ccc(S(=O)(=O)Nc2nccs2)cc1)c1ccccc1` the Potency was active: 31.6 µM. `COC(=O)C1=NN(C(=O)c2cccc(Br)c2)C(O)(c2ccc(Cl)cc2)C1` (stereo unspecified) was tested, and the “activity, negative = inhibition” value was inactive: -6.44%. For `C/C(=N\NC(=O)c1ccc(CSc2nc(C)cc(C)n2)cc1)C1CCCCC1`, the Potency was active: 3.55 µM. `CCOc1cc(OCC)cc(C(=O)Nc2cccc(C(C)=O)c2)c1` was tested, and the “activity, negative = inhibition” value was inactive: -9.47%. With `CCn1c(CSCc2ccccc2)n[nH]c1=S` the Potency was inconclusive [inhibitor, single point]. For `CCC(C)Sc1nc2c(c(=O)[nH]c(=O)n2C)n1CC(O)COc1cccc2ccccc12` (stereo unspecified), the Potency was active: 25.1 µM. `COc1ccccc1N(CC(=O)NCCc1ccccc1)S(C)(=O)=O` was tested, and the Potency was inconclusive [inhibitor, single point]. With `O=C(NCCN1CCCC1)c1ccc2c(=O)n(CCc3ccccc3)c(=O)[nH]c2c1` the Potency was inconclusive [inhibitor, partial curve]. For `COC(=O)c1ccc(Cl)c(NC(=O)CSc2ncn[nH]2)c1`, the Potency was inconclusive [inhibitor, single point]. With `CCc1cc(=O)n2c([nH]c3ccccc32)c1C#N` the Potency was inconclusive [inhibitor, partial curve]. In the case of `CCCNC(C)(C)COC(=O)c1ccccc1`, the “activity, negative = inhibition” value is reported as inactive: 10.2% [at 20.9 µM]. `O=C1C2C3C=CC(O3)C2C(=O)N1CC(O)c1ccccc1` (stereo unspecified) was tested, and the Potency was inconclusive [inhibitor, single point]. For `C=CCn1c(SCc2nc(N)nc(N3CCCCC3)n2)nnc1-c1ccco1`, the Potency was active: 22.4 µM. In the case of `Cc1cc2cc(CN(Cc3ccc4c(c3)OCO4)C(=O)c3ccco3)c(=O)[nH]c2cc1C`, the Potency is reported as inconclusive [inhibitor, partial curve]. With `CCCN(CCC)c1nc(NC2CCN(C(=O)OCC)CC2)nc(OC)n1` the Potency was inconclusive [inhibitor, single point]. In the case of `COc1ccc(NC(=O)CSc2nnc(CNc3ccc(F)cc3)o2)c(OC)c1`, the “activity, negative = inhibition” value is reported as inactive: -12.4%. For `Cc1cccn2c(CN(C)C3CCOC3)c(C(=O)N3CCCCC3)nc12` (stereo unspecified), the “activity, negative = inhibition” value was inactive: 4.98%. With `CC(=O)NC1(C(F)(F)F)C(=O)NC(C)=C1C#N` (stereo unspecified) the Potency was inconclusive [inhibitor, single point]. `Cc1ccc(S(=O)(=O)NCC(=O)OCC(=O)NC(=O)c2cccn2C)cc1` was tested, and the Potency was inconclusive [inhibitor, single point]. With `CCOC(=O)c1c(NC(=O)C2CCCN(S(=O)(=O)c3ccccc3)C2)sc2c1CCCC2` (stereo unspecified) the Potency was inconclusive [inhibitor, single point]. For `CCOc1cc(C2C(C#N)=C(N)Oc3n[nH]c(-c4ccncc4)c32)cc([N+](=O)[O-])c1O` (stereo unspecified), the Potency was inconclusive [inhibitor, single point]. `COCCn1c(=O)c(-c2ccc(F)cc2)nc2cnc(Oc3ccc(OC)cc3)nc21` was tested, and the Potency was inconclusive [inhibitor, single point]. With `COCCN=C1NC(=O)C(CC(=O)Nc2cccc(Cl)c2C)S1` (stereo unspecified) the Potency was inconclusive [inhibitor, single point]. For `Clc1ccccc1OCc1nn2c(-c3ccncc3)nnc2s1`, the Potency was inconclusive [inhibitor, single point]. In the case of `NC(N)=Nc1nc(-c2ccccc2)c2cc(F)ccc2n1`, the Potency is reported as inconclusive [inhibitor, single point]. `COc1ccc(C(=O)NCC(=O)OCC(=O)N2CCc3ccccc32)cc1` was tested, and the Potency was inconclusive [inhibitor, single point]. In the case of `Cc1ccccc1C(=O)c1cccn1CC(=O)NC(C)c1ccc2c(c1)OCCO2` (stereo unspecified), the Potency is reported as inconclusive [inhibitor, single point]. `C=CCSc1nnc(-c2cc3c(C(F)(F)F)nn(C)c3s2)n1C` was tested, and the Potency was inconclusive [inhibitor, partial curve]. For `C=C(C)C1CC=C(C)/C(=N/NC(=O)COc2ccccc2C)C1` (stereo unspecified), the Potency was inconclusive [inhibitor, single point]. For `CCn1c(-c2ccncc2)n[nH]c1=S`, the “activity, negative = inhibition” value was inactive: 1.16%. With `CCCc1nnc(NC(=S)Nc2ccccc2)s1` the Potency was inconclusive [inhibitor, single point]. With `Cc1ccn2c(NC(=O)C(C)(C)Oc3ccc(Cl)cc3)c(-c3cccs3)nc2c1` the Potency was inconclusive [inhibitor, partial curve]. With `COc1ccc(C(=O)N/N=C/c2ccc(OC)c(CN3CCCc4ccccc43)c2)cc1` the Potency was inconclusive [inhibitor, single point]. With `COc1ccc(/C=N/NC(=O)C2c3ccccc3-c3ccccc32)cc1` the Potency was inconclusive [inhibitor, single point]. `O=C(O)c1ccc2c(c1)C(c1ccccc1)OC2=O` (stereo unspecified) was tested, and the Potency was inconclusive [inhibitor, single point]. With `COc1cc(N2CCCC2)c(OC)cc1/C=C1/NC(=S)NC1=O` the “activity, negative = inhibition” value was inactive: 6.32%. With `CCC(=NCc1ccco1)c1c(C(F)(F)F)[nH]n(-c2nc3ccccc3s2)c1=O` the “activity, negative = inhibition” value was inactive: -7.91%. With `COCCN(CCOC)c1nc(C)nc2c1nc(-c1ccccc1)n2CCN(C)C` the Potency was inconclusive [inhibitor, partial curve]. In the case of `CN1CCN(c2ccccc2NC(=O)c2ccc(N3CCCCC3)c([N+](=O)[O-])c2)CC1`, the Potency is reported as active: 22.4 µM. `CCc1ccc(OCC(=O)Nc2ccc(-c3nc4ccccc4o3)c(O)c2)cc1` was tested, and the Potency was inconclusive [inhibitor, full curve]. With `N#Cc1c(C(F)(F)F)cc(-c2ccco2)nc1SCc1ccncc1` the Potency was inconclusive [inhibitor, partial curve]. In the case of `CCCOC(=O)NC(CC)COC(=O)Nc1cccc(C)c1C` (stereo unspecified), the “activity, negative = inhibition” value is reported as inactive: 6.17%. In the case of `O=C(CN1CCC(C(O)(c2ccccc2)c2ccccc2)CC1)Nc1cc(Cl)ccc1Cl`, the Potency is reported as inconclusive [inhibitor, partial curve]. For `NC1CCN(c2c(F)cc3c(=O)c(C(=O)O)cn(C4CC4)c3c2Cl)C1` (stereo unspecified), the “activity, negative = inhibition” value was inactive: 18.6%. In the case of `O=S(=O)(c1ccc(C2CCCCC2)cc1)N1CCCC1`, the “activity, negative = inhibition” value is reported as inactive: -7.81%. `O=C(CN(c1ccccc1)S(=O)(=O)c1ccccc1)Nc1ccccc1C(=O)NCc1ccco1` was tested, and the Potency was inconclusive [inhibitor, partial curve]. With `c1ccc(Cc2ccc(OCCCNC3CCCC3)cc2)cc1` the Potency was inconclusive [inhibitor, single point]. `CCOC(=O)C1=C(c2cccc(Oc3ccccc3)c2)NC(=S)NC1C` (stereo unspecified) was tested, and the Potency was active: 0.316 µM. `CC/C(=N\NC(=S)NC(C)C)c1ccc(OC)c(OC)c1` was tested, and the Potency was inconclusive [inhibitor, single point]. `COc1ccccc1N1CCN(C(=O)CSc2nnc3c4ccccc4nc(Cc4ccccc4)n23)CC1` was tested, and the Potency was inconclusive [inhibitor, single point]. With `Cc1nc2sccc2c(=O)n1N` the “activity, negative = inhibition” value was inactive: 5.73%. `CCCC(=O)Nc1ccc(C(=O)NNC(=S)NC(=O)c2ccc(Br)o2)cc1` was tested, and the Potency was inconclusive [inhibitor, single point]. `O=C(CN1CCN(Cc2ccccc2)CC1)Nc1ccccc1-c1ccccc1` was tested, and the Potency was active: 11.2 µM. In the case of `CCNC(=S)Nc1ccc(N2CCCCC2)cc1`, the Potency is reported as active: 25.1 µM. For `Cc1ccccc1NC(=S)N(Cc1cccnc1)Cc1ccccc1Cl`, the Potency was inconclusive [inhibitor, single point]. In the case of `CC1(C)Cc2c(C#N)c(N3CCCC3)nc(-c3ccco3)c2CO1`, the Potency is reported as inconclusive [inhibitor, partial curve]. `Cc1ccc(C2=NN=C(NC(=O)CSc3nnc4c5ccccc5n(C)c4n3)SC2)cc1` was tested, and the Potency was inconclusive [inhibitor, single point].
